From the supplement of paper PMC8183993
Where a name gives a salt, the structure may show the parent alone. ± gives the standard deviation of the averaged measurements. In all, about 3,100 compounds were measured (“mean cytoplasmic OPP incorporation (global translation) relative to DMSO”: median about 100, lowest 2% from about 56 on). Some of the results follow.

system: U2OS; assay: mean cytoplasmic OPP incorporation (global translation) relative to DMSO (% of DMSO); higher = more protein synthesis; conditions: 10 µM; 24 h
Method: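 Primary image-based screen in U2OS cells: compounds at 10 uM for 24 h, then a 1 h o-propargyl-puromycin (OPP) pulse, click labelling, and high-throughput microscopy. Mean cytoplasmic OPP intensity and nuclei count were normalised to DMSO wells within each plate (DMSO = 100) and averaged over triplicate plates.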

Structure (SMILES) | mean cytoplasmic OPP incorporation
N[C@@H]1C[C@H]1c1ccccc1 [Tranylcypromine hydrochloride] | 95.08 ± 0.83
O[C@H]1[C@H](O)[C@@H](O)CN2CC[C@H](O)[C@H]12 [Castanospermine] | 99.1
CO[C@H]1CC[C@@H](O[C@H]2C[C@H]([C@]3(C)CC[C@]4(C[C@H](O)[C@@H](C)[C@@H]([C@@H](C)/C=C(\C)C(=O)[C@H](C)C[C@H](C)C(=O)O)O4)O3)O[C@]3(O[C@@H]([C@H]4O[C@@](O)(CO)[C@H](C)C[C@@H]4C)C[C@@H]3C)[C@@H]2C)O[C@@H]1C [Nanchangmycin] | 114
O=C(O)[C@@H]1[C@H](C(=O)O)[C@H]2CC[C@@H]1O2 [Endothall] | 103
O=C1CC[C@@]2(O)[C@H]3Cc4ccc(O)c5c4[C@@]2(CCN3CC2CC2)[C@H]1O5 [Naltrexone hydrochloride dihydrate] | 108
Cn1c(CCCC(=O)O)nc2cc(N(CCCl)CCCl)ccc21 [Bendamustine HCL] | 109
CN[C@@H]1[C@@H](O)[C@@H](O[C@@H]2[C@@H](O)[C@H](O[C@H]3O[C@H](CN)CC[C@H]3N)[C@@H](N)C[C@H]2N)OC[C@]1(C)O.CN[C@@H]1[C@@H](O)[C@@H](O[C@@H]2[C@@H](O)[C@H](O[C@H]3O[C@H]([C@@H](C)N)CC[C@H]3N)[C@@H](N)C[C@H]2N)OC[C@]1(C)O.CN[C@@H]1[C@@H](O)[C@@H](O[C@@H]2[C@@H](O)[C@H](O[C@H]3O[C@H]([C@@H](C)NC)CC[C@H]3N)[C@@H](N)C[C@H]2N)OC[C@]1(C)O [Gentamicine sulfate] | 102
CC(NC(C)(C)C)C(=O)c1cccc(Cl)c1 (stereo not drawn) [Bupropion hydrochloride] | 102
CC1(C)[C@H](C(=O)O[C@H](C#N)c2cccc(Oc3ccccc3)c2)[C@@H]1C=C(Br)Br [Deltamethrin] | 101
Oc1ccc2c3c1O[C@H]1c4[nH]c5ccccc5c4C[C@@]4(O)[C@@H](C2)N(CC2CC2)CC[C@]314 [Naltrindole hydrochloride] | 110
Cc1cc(C)cc(C(=O)OC2C[C@H]3CC[C@@H](C2)N3C)c1 (stereo partly drawn) [Tropanyl-3,5-dimethylbenzoate] | 103
CC(C)[C@]12O[C@H]1[C@@H]1O[C@]13[C@]1(O[C@H]1C[C@H]1C4=C(CC[C@@]13C)C(=O)OC4)[C@@H]2O [Triptolide] | 66.9
CC(C)(C)c1cc(C=C(C#N)C#N)cc(Br)c1O | 102 ± 1.4
NC[C@H](CC(=O)O)c1ccc(Cl)cc1 [(R)-baclofen] | 99.3
NC(=S)N/N=C/c1coc2ccccc2c1=O.[Cl][Cu][Cl] | 101
CN1CCC2(C)c3cc(O)ccc3N(C)C12 (single isomer, unassigned; (-)) [(-)-Eseroline fumarate salt] | 107
O=C1NC(=O)c2c1c1c3ccccc3n3c1c1c2c2ccccc2n1[C@H]1CC[C@@H]3O1 | 91.2
Cc1onc(O)c1CC(N)C(=O)O (racemic) [(RS)-AMPA hydrobromide] | 103
Cc1onc(O)c1CC(N)C(=O)O (racemic) | 88.1
CC[C@@H](CO)NC(=O)[C@@H]1C=C2c3cccc4[nH]cc(c34)C[C@H]2N(C)C1 [Methylergometrine maleate] | 103 ± 8.5
CCC1(C2=NCCN2)Cc2ccccc2O1 (stereo not drawn) [Efaroxan hydrochloride] | 95.8
CN(C)c1ccc(/C=C2\CCCN=C2c2cccnc2)cc1 [DMAB-anabaseine dihydrochloride] | 105

Structure (SMILES) | mean cytoplasmic OPP incorporation
NC(N)=Nc1ccc2[nH]c3c(c2c1)C[C@@]1(O)[C@H]2Cc4ccc(O)c5c4[C@@]1(CCN2CC1CC1)[C@H]3O5 [GNTI dihydrochloride] | 102
CCOC(=O)c1ncn2c1[C@@H]1CCCN1C(=O)c1cc(OC)ccc1-2 | 108
CN1[C@@H]2CC[C@H]1C[C@@H](OC(=O)c1cc(Cl)cc(Cl)c1)C2 | 104
O=C(O)c1nn(Cc2ccc(Cl)cc2Cl)c2ccccc12 [Lonidamine] | 89.4
Cc1cc(C(C#N)c2ccc(Cl)cc2)c(Cl)cc1NC(=O)c1cc(I)cc(I)c1O (stereo not drawn) [Closantel] | 109
CC(C)(C)c1cc(C=C(C#N)C#N)cc(C(C)(C)C)c1O [Tyrphostin 9 (SF 6847)] | 92.7
C[C@@H]1C[C@@H]([C@H](O)CC2CC(=O)NC(=O)C2)C(=O)[C@@H](C)C1 [Cycloheximide] | 52.1 ± 35
O=c1[nH]oc2c1CCNC2 [THIP Hydrochloride] | 99.7
O=c1[nH]oc2c1CCNC2 [THIP hydrochloride] | 96
C[N+]1(C)CCc2cc3c(cc2[C@H]1[C@@H]1OC(=O)c2c1ccc1c2OCO1)OCO3 [(-)-Bicuculline methiodide] | 87.3
C[N+]1(C)CCc2cc3c(cc2[C@H]1[C@@H]1OC(=O)c2c1ccc1c2OCO1)OCO3 [(-)-Bicuculline methochloride] | 95.4
CN1CC[C@@H]2CN3CCc4cccc(c43)[C@@H]2C1 [SDZ SER 082 fumarate] | 104
NCC1(CC(=O)O)CCCCC1 [Gabapentin] | 91.8
O=c1cccc2n1C[C@@H]1CNC[C@H]2C1 [(-)-Cytisine] | 93.3
O=c1cccc2n1C[C@@H]1CNC[C@H]2C1 [Cytisine (Baphitoxine, Sophorine)] | 96.4
O=C(CCCN1CCC2(CC1)C(=O)NCN2c1ccccc1)c1ccc(F)cc1 [Spiperone] | 103
O=C(CCCN1CCC2(CC1)C(=O)NCN2c1ccccc1)c1ccc(F)cc1 [Spiperone hydrochloride] | 121
CC(N)C(O)c1ccccc1 (stereo not drawn) [Phenylpropanolamine hydrochloride] | 103
CCCCC1(C2CCCC2)Cc2cc(OCCCC(=O)O)c(Cl)c(Cl)c2C1=O (stereo not drawn) | 95.3
Fc1ccc(C(OCCN2CCN(C/C=C/c3ccccc3)CC2)c2ccc(F)cc2)cc1 | 102
C=C1CC[C@@]2(O)[C@H]3Cc4ccc(O)c5c4[C@@]2(CCN3CC2CC2)[C@H]1O5 [Nalmefene hydrochloride] | 101
